Assay results reported in PubChem BioAssay AID504332 (National Center for Advancing Translational Sciences (NCATS), 2011).
Among all 350,000 compounds or so, about 31,000 (8.9%) were called active. Inconclusive results, whose numbers are uncertain, are shown with a selection of clear calls. The call rests on the fitted dose curve; in most records, active means well fitted inhibition curve with a large enough effect; inconclusive means small, poorly fitted or top-dose-only effect; inactive means no such curve, though single readings can be large or run the other way. A potency beside an inconclusive call is a rough fit, not a confirmed value.

biological target: Histone-lysine N-methyltransferase EHMT2 (Homo sapiens) (UniProt Q96KQ7); assay: qHTS Assay for Inhibitors of Histone Lysine Methyltransferase G9a; conditions: G9a H3K9 monomethylation, AlphaScreen, 2 h; activity, negative = inhibition: at 59 µM (top of the series) unless noted; further: nearly all actives have a fitted effect of over 75% in size
Procedure, shortened: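 Quantitative HTS format: methyltransferase activity on a biotin-tagged H3K9 peptide is measured by AlphaScreen, using a rabbit anti-monomethyl-H3K9 antibody with streptavidin donor and anti-IgG acceptor beads. Final levels are 20 nM enzyme, 500 nM peptide, 20 uM SAM; 2 h RT.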
On the % scale 0 is the no-effect control and ±100 the full control effect; potency means the concentration at half of the fitted maximal effect; tags describe the fitted curve by direction and shape.

Chain of UniProt Q96KQ7 (Q96KQ7 whole entry, looked up): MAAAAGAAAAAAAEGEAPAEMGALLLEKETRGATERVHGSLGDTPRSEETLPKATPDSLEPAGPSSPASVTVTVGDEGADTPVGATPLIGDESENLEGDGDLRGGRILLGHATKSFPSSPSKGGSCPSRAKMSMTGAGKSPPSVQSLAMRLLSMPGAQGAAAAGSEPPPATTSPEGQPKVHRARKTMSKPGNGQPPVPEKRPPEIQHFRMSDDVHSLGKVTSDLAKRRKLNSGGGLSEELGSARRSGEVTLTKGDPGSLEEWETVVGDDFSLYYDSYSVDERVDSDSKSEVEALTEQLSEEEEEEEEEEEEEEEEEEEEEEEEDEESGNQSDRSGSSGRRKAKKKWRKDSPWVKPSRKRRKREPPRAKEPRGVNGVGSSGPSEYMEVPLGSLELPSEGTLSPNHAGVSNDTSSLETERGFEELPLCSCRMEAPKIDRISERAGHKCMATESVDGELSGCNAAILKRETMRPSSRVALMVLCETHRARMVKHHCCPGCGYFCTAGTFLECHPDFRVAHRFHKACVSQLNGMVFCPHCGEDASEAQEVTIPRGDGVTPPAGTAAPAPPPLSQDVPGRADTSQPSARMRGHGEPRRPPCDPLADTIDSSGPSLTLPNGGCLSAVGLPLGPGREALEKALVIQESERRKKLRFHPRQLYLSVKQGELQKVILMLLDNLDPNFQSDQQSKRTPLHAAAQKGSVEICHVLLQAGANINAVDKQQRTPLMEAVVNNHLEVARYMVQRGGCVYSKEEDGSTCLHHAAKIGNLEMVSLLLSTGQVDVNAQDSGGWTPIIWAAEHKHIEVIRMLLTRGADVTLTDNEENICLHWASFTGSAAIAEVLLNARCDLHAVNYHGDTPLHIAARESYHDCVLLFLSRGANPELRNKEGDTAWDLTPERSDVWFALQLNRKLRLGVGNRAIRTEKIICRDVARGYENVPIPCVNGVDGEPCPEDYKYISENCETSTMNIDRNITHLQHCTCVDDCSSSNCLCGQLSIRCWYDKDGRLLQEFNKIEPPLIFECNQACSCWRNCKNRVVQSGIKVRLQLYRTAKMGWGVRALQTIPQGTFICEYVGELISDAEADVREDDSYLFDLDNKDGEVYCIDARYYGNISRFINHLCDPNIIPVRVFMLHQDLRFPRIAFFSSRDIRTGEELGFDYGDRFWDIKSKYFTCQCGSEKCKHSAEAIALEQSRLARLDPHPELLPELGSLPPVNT

Row | Compound | Potency | activity, negative = inhibition
1 | CCc1ccc(C(=O)COC(=O)c2cc([N+](=O)[O-])ccc2N2CCOCC2)cc1 | inconclusive: 8.91 µM [inhibitor, partial curve, poor fit] | –
2 | COc1ccccc1C(=O)NC(=O)CSc1nncn1C(C)C | – | inactive: 26% [at 0.501 µM]
3 | Fc1ccccc1Cn1cc(C(=S)N2CCOCC2)c2ccccc21 | inconclusive: 25.1 µM [inhibitor, full curve] | –
4 | COc1ccc(C(=O)NCCCc2nc3ccccc3n2Cc2ccccc2C)cc1OC | inconclusive: 89.1 µM [inhibitor, single point] | –
5 | Cc1sc2ncnc(SCC(=O)N3CCCC3=O)c2c1C | inconclusive: 22.4 µM [inhibitor, single point] | –
6 | Cc1ccc(S(=O)(=O)NCc2cn3c(C)csc3n2)cc1 | inconclusive: 31.6 µM [inhibitor, single point] | –
7 | O=C(CCNC(=O)c1ccc(Cl)cc1)Nc1ccc(S(=O)(=O)N2CCCCC2)cc1 | – | inactive: -2.16% [at 102 µM]
8 | COc1ccc(NC(=S)NC(=O)/C=C/c2cccs2)cc1 | inconclusive: 7.94 µM [inhibitor, partial curve, poor fit] | –
9 | O=[N+]([O-])c1cnc2ccccn12 | inconclusive: 79.4 µM [inhibitor, partial curve, poor fit] | –
10 | CCOc1ccc(/C=N/Nc2ccccc2)cc1 | active: 25.1 µM | –
11 | CC(=O)Nc1ccc(Sc2ccccc2C(=O)Nc2ccc(F)cc2)cn1 | inconclusive: 56.2 µM [inhibitor, partial curve] | –
12 | C/C(=N/NS(=O)(=O)c1cccc([N+](=O)[O-])c1)c1c[nH]c2ccccc12 | active: 25.1 µM | –
13 | CC[n+]1c(/C=C/C=C/N(C(C)=O)c2ccccc2)sc2cc(OC)ccc21 | inconclusive: 25.1 µM [inhibitor, single point] | –
14 | CCn1cc(CCCC(=O)NCc2cccc(OC)c2)c2ccccc21 | – | inactive: -11.6% [at 102 µM]
15 | Cc1nnc2ccc(-c3cccc(NS(=O)(=O)c4ccccc4Cl)c3)nn12 | inconclusive: 89.1 µM [inhibitor, single point] | –
16 | Cc1nc(NS(=O)(=O)c2ccccc2C)c2c3c(sc2n1)CCC3 | active: 44.7 µM | –
17 | CCOC(=O)C1CCCN(C(=O)Cn2ncc3c4ccccc4n(Cc4ccccc4)c3c2=O)C1 (stereo not given) | – | inactive: -49.3%
18 | O=C(NCCCN1CCCC1=O)c1cccc(Oc2ccccc2)c1 | – | inactive: -24.1% [at 102 µM]
19 | CC(=O)NC(C)C(=O)OCC(=O)c1ccc(Cl)s1 (stereo not given) | – | inactive: 9.94% [at 102 µM]
20 | Cc1cccc(NC(=O)CNC(=O)c2cccs2)n1 | – | inactive: 5.52% [at 102 µM]
21 | Cc1ccc(NC(=S)NNC(=O)c2ccco2)cc1 | inconclusive: 39.8 µM [inhibitor, single point] | –
22 | O=C1COc2ccc(C(=O)C[n+]3cccc(O)c3)cc2N1 | inconclusive: 79.4 µM [inhibitor, single point] | –
23 | O=C(OCC1CCCO1)c1ccc2c(c1)N(Cc1ccccc1)C(=O)c1ccccc1S2(=O)=O (stereo not given) | – | inactive: -0.186%
24 | CCc1ccccc1NC(=O)CN1C(=O)CCSc2ccc(S(=O)(=O)N3CCCC3)cc21 | – | inactive: 13.3%

Row | Compound | Potency | activity, negative = inhibition
25 | Cn1c(=O)n(C)c(=O)n(CC(=O)N2CCCCC2)c1=O | inconclusive: 79.4 µM [inhibitor, partial curve, poor fit] | –
26 | Cc1c(C(=O)OCC(=O)N2CC(=O)Nc3ccccc32)oc2ccccc12 | inconclusive: 56.2 µM [inhibitor, partial curve, poor fit] | –
27 | Cc1nc2c3cc(F)ccc3n(CCN3CCCCC3)c2s1 | inconclusive: 39.8 µM [inhibitor, partial curve, poor fit] | –
28 | O=C(C/C=N\OCc1ccc(Cl)cc1Cl)Nc1ccccc1 | – | inactive: 76.3% [at 102 µM]
29 | O=C(CN1CCCCC1)NN(Cc1ccccc1)c1ccccc1 | active: 15.8 µM | –
30 | O=C1NCCCC1C(=O)N/N=C/c1cccc(O)c1 (stereo not given) | – | inactive: 13.5%
31 | Cc1ccc(CNC(=O)c2cccc(-n3cnnn3)c2)cc1 | inconclusive: 79.4 µM [inhibitor, single point] | –
32 | Cc1ccc(NC(=O)c2nc(S(C)(=O)=O)ncc2N(Cc2ccco2)Cc2cccs2)cc1C | inconclusive: 15.8 µM [inhibitor, partial curve, poor fit] | –
33 | CC(C)(C)NC(=O)NC(=O)CSc1nnc(COc2ccccc2Cl)o1 | inconclusive: 25.1 µM [inhibitor, single point] | –
34 | CCC(C)(C(=O)NC1CCCC1)N(C(=O)CNC(=O)c1ccccc1)c1c(C)n(C)n(-c2ccccc2)c1=O (stereo not given) | – | inactive: -45.6%
35 | CCOC(=O)c1c(C)[nH]c(N=Nc2ccc(C)cc2)c1C | inconclusive: 3.16 µM [inhibitor, single point] | –
36 | COc1ccc(NC(=O)c2sc3nc(C(F)(F)F)cc(C)c3c2N)cc1OC | inconclusive: 22.4 µM [inhibitor, partial curve, poor fit] | –
37 | CCOC(=O)C1=C(C)N=C2SC(C)C(=O)N2C1c1ccc(OC(C)=O)c(OCC)c1 (stereo not given) | inconclusive: 89.1 µM [inhibitor, partial curve, poor fit] | –
38 | O=C(COC(=O)c1cccnc1Cl)Nc1cc(S(=O)(=O)N2CCCCC2)ccc1Cl | inconclusive: 11.2 µM [inhibitor, partial curve, poor fit] | –
39 | Cc1cccc(C(=O)N2CCC(=O)N([C@H](COCc3cccc(Cl)c3)Cc3ccccc3)CC2)c1 | – | inactive: 4.22%
40 | Cc1ccc(-n2nnnc2C(Cl)c2nnnn2-c2ccc(C)cc2)cc1 | inconclusive: 79.4 µM [inhibitor, single point] | –
41 | Cc1ccc(C(=O)Nc2c(C)cc(-c3ccccc3)oc2=O)cc1 | – | inactive: 1.67% [at 102 µM]
42 | CC1(C)CC(=O)/C(=C(\O)Cc2ccccc2)C(=NCCCCCC(=O)O)C1 | – | inactive: 0.146%
43 | COc1ccccc1NC(=O)c1cc2c(C)nn(-c3ccccc3)c2s1 | – | inactive: -37.6%
44 | O=c1c(-c2ccco2)[n+]([O-])c2ccccc2n1OCc1ccccn1 | – | inconclusive: -71.9% [inhibitor]
45 | CC1CCCCC1NC(=O)CCCCCn1c(=S)[nH]c2ccsc2c1=O (stereo not given) | active: 28.2 µM | –
46 | CC1CCN(C(C)C(=O)Nc2ccccc2-c2ccccc2)CC1 (stereo not given) | active: 31.6 µM | –
47 | O=C(O)c1nn(CCOc2ccc(Cl)cc2Cl)c(=O)c2ccccc12 | – | inactive: 30.1% [at 102 µM]
48 | Cn1c(=O)cc(SCC(=O)N2CCN(c3ccccc3F)CC2)c2ccc(Cl)cc21 | inconclusive: 31.6 µM [inhibitor, single point] | –

Row | Compound | Potency | activity, negative = inhibition
49 | COCCCNC(=O)CSc1nc2cc3c(cc2c(=O)n1CCCC(=O)NCc1ccc2c(c1)OCO2)OCO3 | – | inactive: -4.29%
50 | COC(=O)C/C=C/[C@@H](C)[C@@H](/C=N/O[C@@H](C)c1cn([C@H](CO)Cc2ccccc2)nn1)NS(=O)(=O)c1ccc(C)cc1 | inconclusive: 70.8 µM [inhibitor, partial curve, poor fit] | –
51 | O=[N+]([O-])c1cc(S(=O)(=O)N2CCCC2)ccc1OCc1ccccc1 | inconclusive: 22.4 µM [inhibitor, partial curve, poor fit] | –
52 | O=C(COc1ccc(Br)cc1)N1CCN(c2ccc([N+](=O)[O-])c(N3CCCCC3)c2)CC1 | active: 35.5 µM | –
53 | O=C1Nc2ccc(F)cc2C12Nc1ccccc1-c1nnc(SCc3ccccc3)nc1O2 (stereo not given) | – | inactive: -10.8% [at 0.0925 µM]
54 | COc1cc(C(=O)O)ccc1OCc1ccncc1 | active: 44.7 µM | –
55 | COc1cc(C(=O)COC(=O)Cc2cnc3sccn23)cc(OC)c1OC | inconclusive: 3.16 µM [inhibitor, single point] | –
56 | Cc1ccccc1NC(=O)COc1coc(CN2CCN(c3ccccc3)CC2)cc1=O | inconclusive: 89.1 µM [inhibitor, partial curve, poor fit] | –
57 | C=C(C)Cn1c(-c2ccc(OC)cc2)nc2ccccc21 | inconclusive: 22.4 µM [inhibitor, single point] | –
58 | COCCNC(=O)/C(C#N)=c1\s/c(=C\c2ccccc2OC(F)F)c(=O)n1Cc1ccccc1 | inconclusive: 79.4 µM [inhibitor, partial curve, poor fit] | –
59 | O=C(Cc1ccccc1)Nc1sc2c(c1C(=O)Nc1ccc(Br)cc1)CCCC2 | – | inactive: -35.5%
60 | O=C1/C(=C/c2ccccc2O)SC(=S)N1Cc1cccnc1 | inconclusive: 35.5 µM [inhibitor, single point] | –
61 | CC(=O)N1CCc2cc(S(=O)(=O)CCC(=O)N(C)c3cc(C)ccc3C)ccc21 | inconclusive: 56.2 µM [inhibitor, partial curve, poor fit] | –
62 | COc1ccc(CNC(=O)c2cc3sccc3n2Cc2ccc(C)cc2)cc1 | inconclusive: 28.2 µM [inhibitor, single point] | –
63 | COCCCn1c(-c2ccc(S(=O)(=O)N3CCOCC3)cc2)csc1=Nc1ccccc1 | inconclusive: 10 µM [inhibitor, full curve] | –
64 | O=C(Nc1cccc(F)c1)N1CC[C@@]2(CCCNC2)C1 | – | inactive: -15.4% [at 12.7 µM]
65 | COc1ccc(OC)c(NC(=O)COC(=O)C2CCN(C(=O)c3ccc(Cl)cc3)CC2)c1 | inconclusive: 50.1 µM [inhibitor, partial curve, poor fit] | –
66 | Cc1ccc2c(CNCc3ccc(C)o3)c(C(=O)O)n(Cc3ccc(F)cc3)c2c1 | – | inconclusive: -64.4% [inhibitor]
67 | O=c1cc(O)n(C2CCCCCC2)c(=O)[nH]1 | inconclusive: 79.4 µM [inhibitor, single point] | –
68 | N#CC1=C(N)NC(SCc2ccccc2)=C(C#N)C12CCCC2 | active: 79.4 µM | –
69 | COc1ccc(CCNc2ncnc3c2[nH]c2cc(OC)c(OC)cc23)cc1OC | inconclusive: 39.8 µM [inhibitor, single point] | –
70 | Cc1cc(C)c[n+](CC(=O)c2cc3ccccc3oc2=O)c1 | inconclusive: 79.4 µM [inhibitor, single point] | –
